# Experimental data from the supplement of paper PMC11417369.
# Some of the results follow.
# Tested on: PfSIP2 AP2 domain 1 (GST-tagged)
# Assay: gcPBM binding intensity (ln(normalized median fluorescence intensity)); higher = stronger DNA binding
# Outline: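 Each value is the highest Masliner-normalised natural-log median intensity across replicate spots of either orientation of a probe. The probes were primer-extended double-stranded 36-bp intergenic genomic sequences on an Agilent 4 × 180k array, alongside negative controls, exposed for 1 h to GST-tagged P. falciparum DNA-binding domains expressed in E. coli. Bound protein was picked up with Alexa488 anti-GST antibody and scanned at 488 nm.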
row,Sequence,gcPBM binding intensity (ln)
1,ATATATTTTAAATATATTATTATTGCATTGTGAAAA [TGCATGCA_negctrl_site106],7.07
2,TCTTAAAAAATAGGGACACGTAAATATAATATATAA [CACACA_negctrl_site554],6.96
3,AAAAAAAAAAAAAAAACACACATATATATATATATA [CACACA_site2436],10.1
4,TATATATATATATATAGTACATATTAATTAATTTAT [XGTACX_site8198],9.76
5,TATAATGAGGATAATAGTACATATGAATACAAAAAA [XGTACX_site3665],6.96
6,TACACAAGCAGACACACACACATATAGATTTATATA [CACACA_site6715],7.32
7,GCCATAAAAATATATACACACATAAAAAAAAATTAT [CACACA_site1176],7.09
8,TTAATATTGTATTTCACACATAATTTAATATACTCA [CACACA_site5678],6.87
9,TTAAATAAGTAATTATGTACATATAATATTCTTTAT [XGTACX_site5280],6.97
10,TATAGGAATATATGGTGTACCTATAAATCTGACATA [XGTACX_site8111],6.84
11,AAAAATAAAAATTGCACACTAAAAAATTACGCACGA [CACACA_site3418],7.6
12,ATTTATATATTTATACGTACTTATATATTGTTACAT [XGTACX_site6254],7.16
13,TAGAAAATATAAAAATGTACGTAAATAAAATGTGCA [XGTACX_site3459],7.52
14,TCTTAAGGAAAAGAGTGTACAGAAATTTTTATTAAC [XGTACX_site6139],7.1
15,ATCCGAGTGTGAAATACACACATGATAATGTGAATG [CACACA_site919],6.86
16,AATTATATTACAAACTGTACATATATAATTTGTCCA [XGTACX_site6009],6.82
17,ACATGAAATGTTTAAAGTACATATATAAATTTTTTT [XGTACX_site4519],6.79
18,ATATATAGATAATCAAGTACATAACAAGATATAAGA [XGTACX_site2186],7.02
19,TACTGATCTTTCTAGGTGCGCTGCTACCATTATCGT [GTGCAC_site9538],9.59
20,AAATGTGAAGTGAATACACACCTAATAAATATAACA [CACACA_site5727],6.9
21,TATATTTAATTATTATGTACTTATAATTTTTGAAAG [XGTACX_site8548],7.2
22,CTTTCCTATTTGACACGTACGAAATTTTACATAAAA [XGTACX_site6689],7.36

row,Sequence,gcPBM binding intensity (ln)
1,AAATATATATACACATATATATATATATATATATAT [CACACA_negctrl_site1742],9.46
2,TATGAAATATCGTGCACACACGAATAATATAAGAAT [CACACA_site4842],8.91
3,AAAATAAAAAATATAACACACAATAAATATTTATAT [CACACA_site6986],7.05
4,TATATATATAATATTACACACATATATTTATATTTT [CACACA_site3460],7.99
5,ATTTATACATGCTAATGTACTTATTTCACCTATATC [XGTACX_site3120],7.02
6,TATGGTATATACAACACACACACATATGTATAAATA [CACACA_site6562],7.22
7,CAAGTATTAATTATGTGTACATATATATATATATAT [XGTACX_site5311],9.57
8,TATGTATTTATCCACTTACATTTTTACTTTTCCATT [CACACA_negctrl_site1141],6.8
9,TGTTTGCTTATGTGTTAAATATATATATATATATAT [TGCATGCA_negctrl_site218],9.44
10,ATTTTAGGAAAAAAAAGTACATATAATTTTTTATAT [XGTACX_site6954],6.93
11,CGAACACAAACACAAACACACATCAGATATAAATAT [CACACA_site6736],6.99
12,TTTTTTTTGATATATACACACAATAAATAAATATAA [CACACA_site7400],7.18
13,ATTTATTATTATATCACACATAATATATTAAATGAT [CACACA_site5821],6.95
14,TATGGAGAAATAAATAGTACGTATTTTATTTAAAAA [XGTACX_site3129],6.88
15,AAAAATATAAAAATAGCACACATATATACATATATA [CACACA_site7901],6.95
16,ATGTTCGATGATAAATGTACAAAAATAATGGAAGTA [XGTACX_site1916],7.38
17,TATAAAAATATTGAAAGTACTTATTAAAATATTATT [XGTACX_site3701],6.96
18,TTTCCTAGCACATGCACACAAAAAAAAAAAAAAAAA [CACACA_site1404],7.49
19,CTTGCAAAAAGTATATGTACATATATATATATATAT [XGTACX_site5792],9.15
20,TATTCCTAATTGACAACACACACAACAAAAAAGGGA [CACACA_site8350],7.44
21,CTATAATATGGTATTACACACTGTTATAAGTATGGC [CACACA_site7068],6.88
22,ATATATTTTTTGAATACACACATATTATCTGTAATA [CACACA_site4826],7.06

row,Sequence,gcPBM binding intensity (ln)
1,TATAAATAGAGACACACACACATATAAATAAATATT [CACACA_site7854],7.04
2,TATATTTCTTCTATAACATGCAGATATATGAAAATA [TGCATGCA_site971],7.11
3,TAATGAAATATTATGTGTACTTAAAAATTATTAAAT [XGTACX_site5261],7.13
4,ATTATTAACATATATATACACACGAAAAAATTATAT [CACACA_site625],7.4
5,AGAATTATTTTATGTTTGCACTTTTTTTTTCTATAA [GTGCAC_site9876],8.35
6,TTTTTGTTCTATATGGTGCATGTTTATATTCGTATT,10.3
7,ATTAGCAACATTGATAAATATAAACACACGAAAACA [TGCATGCA_negctrl_site97],7.21
8,ATACCATAAATATTGTGTACATAAATATGTTAGTAA [XGTACX_site6077],7.03
9,TTTTAGAAATTTACTAAACTTTATATAACTATTGAA [TGCATGCA_negctrl_site280],6.76
10,CATGTTTATGCCGTTTGTACATATATATCTAAAAAA [XGTACX_site4336],7.56
11,CACGTATATATATATACACACACATATATATATGTA [CACACA_site7948],7.1
12,GTTCATATCTTTTGAGCACACATATATATATATAAA [CACACA_site9099],7.26
13,ATAAGTAAAAATAAAAAAAAAATATATATATATATA [CACACA_negctrl_site1816],9.24
14,ATGATTATAATTTAAAATATTTTACATAACCATTTC [GTGCAC_negctrl_site297],7.06
15,TTTAGCTATTATAGCTGTACAATGATAAAATAAATT [XGTACX_site6318],6.96
16,AATGAATCCTTATATACACACATTATTATATTATAT [CACACA_site3108],7.05
17,ATTGATACATCCAATACACACTACATATAATGATGT [CACACA_site8561],6.97
18,TTTTTTATATATACATATATATAAATATATATAACT [GTGCAC_negctrl_site385],6.72
19,ATATTAATAATATATGCATGCATTAACATATTGAAA [TGCATGCA_site951],7.22
20,GTATGTATGTATATATGTACACATTATTATTTAATG [XGTACX_site5802],7.49
21,GAGAAAAGGAAATTCACACATATAAAGAAAGATCTA [CACACA_site5420],6.64
22,AGTTTATTTGTAAAAAGTACATATTTAAGAAAACTT [XGTACX_site2318],6.96

row,Sequence,gcPBM binding intensity (ln)
1,TTCTAACTCTAACAAGTGCAATATATATACATAATA,8.34
2,AAATTTGGCAAACACACACACACACCCACACCCACA [CACACA_site8095],6.95
3,AATATATATCATCACACACACATACATAAATATATA [CACACA_site184],7.22
4,TATATTATATATATGTGTACATATAAATGTAACAAA [XGTACX_site5025],7.28
5,AATACATATAAAAGTACACACACACCCATATATATA [CACACA_site8220],7.61
6,ATAGAATACATATATGAACACACAGAGTTTTAAAAA [CACACA_site8879],6.89
7,TTTTTTTTTTGATGTTGTACATATATACTATATAAT [XGTACX_site1332],7.02
8,GAAAATAAAAAAAATAAAAAAAATAAAAAAAATTAT [XGTACX_negctrl_site443],6.71
9,TAAATATCTAAAGACTGTACAATTAAATATAAACAT [XGTACX_site1450],6.96
10,TTTTGTAACCTATGCACGCACACAAGAAAAAAACAA [CACACA_site3776],7.7
11,TTATAAAGAACACAGACACACAAAGAAAGAACCAAT [CACACA_site4175],7.23
12,CACAAATAAATACATACACACATATATACTCATATA [CACACA_site4379],6.99
13,TGGGCGTCATAATGAACACACAATTATATTATGACT [CACACA_site3910],6.81
14,TTACACAAATAGCTGCATTTATAAAATACAATTAAA [CACACA_negctrl_site241],6.79
15,TTTTGTCAATTTTAGATTTTTCAATACATGGATATT [CACACA_negctrl_site319],6.77
16,ATATATATATATTTATGTACGAATATGTTTAATTTA [XGTACX_site3986],8.93
17,ATATATATAATAATATGTACGGAAAAAGCTTAAGCT [XGTACX_site5661],7.22
18,AAATATATATATTTACGTACATATATACAAATAGAG [XGTACX_site6067],7.68
19,AAAAATAAAGAAACAGGTACGCATATATTAAGATAT [XGTACX_site8097],7
20,AATATATTCCACATGTGTACATATATATATATATAT [XGTACX_site8006],9.73
21,TTTCCTTCTACAAAAAATTTTATCAAGAGGAAGTAC [CACACA_negctrl_site926],7.37
22,TGTCACTACAAATGAGTGCATTAAATAATTTGGAAA,8.93
